This is one part of the list. The list includes weakly bound sequences.

The results in this text go back to paper PMC12820563.

This test concerns the target T1, MBP-FoxP3dN (UniProt Q99JB6).
T1 sequence: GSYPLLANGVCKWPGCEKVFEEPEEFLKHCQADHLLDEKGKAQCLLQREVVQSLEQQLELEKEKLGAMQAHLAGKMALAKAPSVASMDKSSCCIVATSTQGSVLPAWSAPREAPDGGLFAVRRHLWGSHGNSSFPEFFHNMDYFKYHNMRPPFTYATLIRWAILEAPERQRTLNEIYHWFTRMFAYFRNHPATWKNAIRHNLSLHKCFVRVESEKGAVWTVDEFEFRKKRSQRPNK
Briefly: PD-seq (MBP pull-down with sequencing). The following applies: 20 mM Tris-HCl pH 7.5, 100 mM NaCl, 1.5 mM MgCl2, 0.4 uM protein, 0.1 uM dsDNA library, 30 min, room temperature, amylose pull-down; high values mean tight binding; double strand, one strand shown.
In the case of “GATGATTGTTCTCCCAGCTGATGAATTTATTAGCTCGAGTAAACAAATTTTCCTAATCTTTCTGTTCAAGCGCCATCTAC”, the binding signal (RPM ratio (pull-down/input)) was determined as 4.35.
Consider “GATGATTGTTCTCCCAGCTGATGAATTACACCCATCGAGTAAACAAATTTTCCTAATCTTTCTGTTCAAGCGCCATCTAC”, for which the binding signal (RPM ratio (pull-down/input)) came out at 0.516.
For “GATGATTGTTCTCCCAGCTGATGAATTAGAACATTCGAGTAAACAAATTTTCCTAATCTTTCTGTTCAAGCGCCATCTAC”, the binding signal (RPM ratio (pull-down/input)) is 0.444.
With “GATGATTGTTCTCCCAGCTGATGAATTGCAATGCTCGAGTAAACAAATTTTCCTAATCTTTCTGTTCAAGCGCCATCTAC”, the binding signal (RPM ratio (pull-down/input)) amounted to 1.59.
For the sequence “GATGATTGTTCTCCCAGCTGATGAATTTAACGATTCGAGTAAACAAATTTTCCTAATCTTTCTGTTCAAGCGCCATCTAC”, the binding signal (RPM ratio (pull-down/input)) came out at 0.297.
For the sequence “GATGATTGTTCTCCCAGCTGATGAATTGAGGGATTCGAGTAAACAAATTTTCCTAATCTTTCTGTTCAAGCGCCATCTAC”, the binding signal (RPM ratio (pull-down/input)) was 0.519.
As to “GATGATTGTTCTCCCAGCTGATGAATTAGGCCGTTCGAGTAAACAAATTTTCCTAATCTTTCTGTTCAAGCGCCATCTAC”, the binding signal (RPM ratio (pull-down/input)) was 0.92.
For “GATGATTGTTCTCCCAGCTGATGAATTTGCAAGGTCGAGTAAACAAATTTTCCTAATCTTTCTGTTCAAGCGCCATCTAC”, the binding signal (RPM ratio (pull-down/input)) stood at 0.639.
The result for “GATGATTGTTCTCCCAGCTGATGAATTCCACTCGTCGAGTAAACAAATTTTCCTAATCTTTCTGTTCAAGCGCCATCTAC” reads 0.436; that for “GATGATTGTTCTCCCAGCTGATGAATTGCCCTGATCGAGTAAACAAATTTTCCTAATCTTTCTGTTCAAGCGCCATCTAC”, 0.367; that for “GATGATTGTTCTCCCAGCTGATGAATTGACGAGATCGAGTAAACAAATTTTCCTAATCTTTCTGTTCAAGCGCCATCTAC”, 0.247.
For “GATGATTGTTCTCCCAGCTGATGAATTTCAGGCTTCGAGTAAACAAATTTTCCTAATCTTTCTGTTCAAGCGCCATCTAC”, the binding signal (RPM ratio (pull-down/input)) came to 0.301.
The result for “GATGATTGTTCTCCCAGCTGATGAATTATTAGACTCGAGTAAACAAATTTTCCTAATCTTTCTGTTCAAGCGCCATCTAC” reads 0.335.
In the case of “GATGATTGTTCTCCCAGCTGATGAATTCGACGTCTCGAGTAAACAAATTTTCCTAATCTTTCTGTTCAAGCGCCATCTAC”, the binding signal (RPM ratio (pull-down/input)) was 0.735.
With “GATGATTGTTCTCCCAGCTGATGAATTGTCGTCGTCGAGTAAACAAATTTTCCTAATCTTTCTGTTCAAGCGCCATCTAC”, the binding signal (RPM ratio (pull-down/input)) was found to be 0.609.
Under “GATGATTGTTCTCCCAGCTGATGAATTGGCTCTGTCGAGTAAACAAATTTTCCTAATCTTTCTGTTCAAGCGCCATCTAC” stands 0.28; under “GATGATTGTTCTCCCAGCTGATGAATTTCTGGGCTCGAGTAAACAAATTTTCCTAATCTTTCTGTTCAAGCGCCATCTAC”, 0.194; under “GATGATTGTTCTCCCAGCTGATGAATTGGCTAGTTCGAGTAAACAAATTTTCCTAATCTTTCTGTTCAAGCGCCATCTAC”, 0.641.
